# In PubChem BioAssay AID488969 (Vanderbilt High Throughput Screening Facility, 2010):
# Whole data set: some 110,000 compounds, median “z-score” near -0.1, cut for the highest 2% near 2. Some of the results follow.
# Target: Metabotropic glutamate receptor 8 (Rattus norvegicus) (UniProt P70579)
# Assay: rat mGluR8 modulators via GIRK flux, primary screen, cell-based, thallium flux, HTS (AID 488969)
# Conditions: HEK293 rat mGluR8, GIRK (G protein-gated inwardly rectifying potassium channel) thallium flux, FluoZin2; at 10 µM; stronger effect = higher value; submaximal glutamate (EC20) added with thallium
# Sequence of UniProt P70579 (P70579 whole entry, looked up): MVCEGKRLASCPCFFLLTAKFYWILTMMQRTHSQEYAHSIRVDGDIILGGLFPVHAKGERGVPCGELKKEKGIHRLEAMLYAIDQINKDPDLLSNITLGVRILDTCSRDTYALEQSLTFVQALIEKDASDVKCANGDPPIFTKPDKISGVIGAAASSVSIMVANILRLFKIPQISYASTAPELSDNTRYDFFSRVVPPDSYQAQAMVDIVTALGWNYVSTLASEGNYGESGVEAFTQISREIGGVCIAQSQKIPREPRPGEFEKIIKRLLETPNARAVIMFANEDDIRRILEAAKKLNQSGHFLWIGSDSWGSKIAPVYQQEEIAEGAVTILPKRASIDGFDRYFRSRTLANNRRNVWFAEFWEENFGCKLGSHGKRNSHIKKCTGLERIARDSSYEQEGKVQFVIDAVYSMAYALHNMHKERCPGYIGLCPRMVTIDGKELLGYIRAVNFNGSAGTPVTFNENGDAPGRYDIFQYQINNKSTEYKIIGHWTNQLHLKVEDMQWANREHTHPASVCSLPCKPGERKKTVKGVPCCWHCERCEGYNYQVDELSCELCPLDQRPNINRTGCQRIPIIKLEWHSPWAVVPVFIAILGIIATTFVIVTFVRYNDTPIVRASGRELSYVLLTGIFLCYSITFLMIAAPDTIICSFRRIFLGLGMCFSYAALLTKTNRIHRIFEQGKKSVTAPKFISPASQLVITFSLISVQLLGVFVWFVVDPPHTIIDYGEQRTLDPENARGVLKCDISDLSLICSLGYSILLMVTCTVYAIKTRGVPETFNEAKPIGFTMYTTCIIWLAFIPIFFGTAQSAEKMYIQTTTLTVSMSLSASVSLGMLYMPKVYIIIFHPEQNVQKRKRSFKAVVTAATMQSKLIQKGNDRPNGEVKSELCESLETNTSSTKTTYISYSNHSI
row,SMILES,z-score
1,CCOc1cc(C(=O)Nc2ccc3c(c2)OCO3)ccc1OC(F)F,0.487
2,Cn1nc(-c2ccc(Cl)cc2)c2cc(C(=O)NCCCN3CCCC3)sc21,0.212
3,Cc1nn(C)cc1NC(=O)CC12CC3CC(CC(C3)C1)C2,-0.0159
4,Fc1cccc(NCc2cn3ccccc3n2)c1,0.0674
5,O=C(NC(=O)c1ccccc1)NC1(C(F)(F)F)OCCO1,0.718
6,O=C(CC1Sc2ccccc2NC1=O)Nc1ccccc1[N+](=O)[O-] (stereo not drawn),-0.202
7,CCOC(=O)c1sc(NC(=O)CSc2nc(C)cc(-c3ccccc3)n2)c(C#N)c1C,-0.169
8,COC(=O)Nc1nnc(Cc2ccc(OC)cc2)s1,-0.342
9,Cc1ccc(C(C)C)cc1OCCOCCN1CCCC1,0.0157
10,CCOc1ccccc1NC(=O)COC(=O)CN(C)S(=O)(=O)c1ccc(C)cc1,-0.714
11,CC(C)c1ccc(C(=O)N2CCN(CCO)CC2)cc1,-0.0351
12,O=C(N/N=C/c1cnc2ccccc2n1)c1cccc(F)c1,0.223
13,Cc1cc(C)n2c(SC/C(O)=C(\C#N)c3nc4ccccc4[nH]3)nnc2n1,0.166
14,CC1CC(C(F)(F)F)n2ncnc2N1 (stereo not drawn),0.187
15,CCC(=O)Nc1cccc(NC(=O)c2ccc(C)c([N+](=O)[O-])c2)c1,-0.296
16,CC1(C)CC(=O)C=C(Nc2ccccn2)C1,-0.035
17,CCN(CC)c1ccc(CNC23CN4CN(CN(C4)C2)C3)cc1,0.0209
18,COc1ccc(C(=O)SC2=NCCS2)cc1,0.159
19,CN(CC(=O)Nc1cccc2c1CCCC2)S(=O)(=O)c1ccc(Cl)cc1,-0.214
20,O=C(c1ccccc1)N1CCN(CC#Cc2ccccc2)CC1,-0.575
21,O=C(CCSCCC(=O)Nc1ccccc1F)Nc1ccccc1F,-0.0512
22,O=C(CSc1nnc(Cc2ccccc2)n1-c1ccc(Cl)cc1)N1CCOCC1,-0.408
23,O=C1C2C3C=CC(CO)(O3)C2C(=O)N1c1ccc(-c2ccccc2)cc1 (stereo not drawn),-0.187
24,CCOC(=O)CN1C(=O)S/C(=C/c2ccc(N3CCCCC3)o2)C1=O,-0.277
25,O=C(Nc1ccc(N2CCN(Cc3ccccc3)CC2)cc1)c1cccnc1,-0.204

row,SMILES,z-score
1,CCn1c(-c2cccnc2Cl)nc2ccccc21,-0.102
2,O=C(COC(=O)CSc1cccc2cccc(Cl)c12)Nc1ncc(C(F)(F)F)cc1Cl,-0.127
3,CSc1nc(N)c2c3c(sc2n1)COC(C(C)C)C3 (stereo not drawn),-0.112
4,COc1nc2c(C)cccc2cc1-c1noc(-c2ccco2)n1,-0.0947
5,CC(C)COC(=O)C(N)C(C(=O)OCC(C)C)c1ccccc1 (stereo not drawn),-0.36
6,COc1ccc(CN2CC(C(=O)NCCc3ccc(C)cc3)CC2=O)cc1 (stereo not drawn),0.173
7,CCn1c2ccccc2c2cc(NC(=O)CC(C)=O)ccc21,-0.32
8,Cc1noc(C)c1C(=O)Nc1sc(C)c(-c2ccccc2)c1C#N,-0.541
9,CC(C)CC(=O)OCC(=O)Nc1ccccc1Sc1ccccc1,-0.214
10,COc1cc(-c2nnc(SCC(=O)N3CCCC3)o2)cc(OC)c1OC,2.2
11,c1ccc2c(Oc3ccc4c(c3)OCO4)nncc2c1,-0.0366
12,COc1ccc(NC(=O)NC2(C(=O)N3CCCCCC3)CCCCC2)cc1,-0.0954
13,CNc1nc(SCc2ccccc2Cl)nc2c1CCCC2,-0.358
14,Cc1ccc(C(=O)NCc2nnc(SCC(=O)Nc3sc4c(c3C#N)CCCC4)n2C)cc1,0.525
15,Cc1ccc(-n2cnc3cc(NCc4cccs4)ccc32)cc1,-0.548
16,CC(=O)Nc1cnc2ccccc2n1,-0.46
17,Cc1c(Cl)cccc1NC(=O)c1nc(C)n(-c2cc(OC(C)C)c(Cl)cc2Cl)n1,-0.121
18,CC1CN(c2ncnc3c2cnn3-c2ccc(Cl)cc2)CC(C)O1 (stereo not drawn),-0.335
19,CCOC(=O)c1sc(C)c2c(=O)n(Cc3ccc(Cl)cc3)c(C)nc12,-0.425
20,COc1ccc(NC2=NC(=S)N(c3ccc(C)cc3)C23CCCCC3)cc1,0.796
21,COC(=O)C(C)(C)ONC(=O)Nc1ccc(C)cc1,-0.18
22,COc1cccc(OC)c1OCCNC(C)(C)C,-0.0552
23,CCN(CC)c1ccc(C2C3CCCCC3(O)CCN2C(=O)c2cccs2)cc1 (stereo not drawn),-0.585
24,Cc1nc2ccc(Cl)cc2c(-c2ccccc2F)c1CC(=O)O,-0.39
25,Cc1cc(C)n(CC(=O)N/N=C/c2cccs2)n1,-0.0134

row,SMILES,z-score
1,Cc1ccc[n+](-c2[nH]c(=O)sc2/C=N/NC(=O)c2ccccc2[O-])c1,-0.2
2,CCOC(=O)N1CCN(c2nc(-c3cccc(OC)c3)cc(C(F)(F)F)n2)CC1,0.0804
3,CCN1C(=O)CSc2ccc(C(=O)NCc3ccccc3OC)cc21,-0.32
4,Cc1cc(S(=O)(=O)NC2CCCC2)ccc1F,0.0251
5,COC(=O)c1c(-c2ccc(C)cc2)csc1NC(=O)C1CC=CCC1C(=O)O (stereo not drawn),-0.421
6,COc1cc(/C=N/OCC(=O)Nc2ccc(OC(F)F)cc2)ccc1OCc1ccccc1,-0.0267
7,O=C(CSc1ccc(-c2ccccc2)nn1)NCc1ccco1,0.457
8,CNC(=O)COC(=O)c1[nH]c(C)c(C(C)=O)c1C,-0.133
9,N#Cc1c(N)c(C(=O)c2ccccc2)n2c1CCCC2,-0.142
10,COCCn1c(SCC(=O)Nc2ccc3c(c2)CCC3)nc2ccccc2c1=O,-0.106
11,NC1=C([N+](=O)[O-])C(c2ccc(F)cc2)C2=C(CCCC2=O)O1 (stereo not drawn),-0.338
12,C/C(=N\NC(=O)CC#N)c1cc2ccccc2oc1=O,-0.108
13,Cc1ccc(-n2ncc3c(NCc4ccc5c(c4)OCO5)ncnc32)c(C)c1,-1.5
14,Cc1sc2ncnc(OCC(=O)NCc3cccs3)c2c1C,-1.78
15,COc1ccc(/C=N/NC(=O)C(=O)/C=C2\NC3(CCCC3)Cc3ccccc32)cc1,0.0973
16,Cc1ccc(NC(=O)Cc2nnc(SCC(=O)Nc3ccccc3)n2C)cc1,-0.164
17,Cc1ccc(N(C(C)C(=O)N2CCCCC2)S(C)(=O)=O)cc1C (stereo not drawn),-0.597
18,Cc1ccc(O)c(C2=Nc3ccccc3N=C(c3ccc([N+](=O)[O-])cc3)C2)c1,-0.258
19,CN1CC2(Cc3c1ccc1ccccc31)C(=O)OC(C)(C)OC2=O,-0.196
20,COc1ccc(NC(=S)Nc2ccc(Oc3ccccc3)cc2)cc1,-0.309
21,CC(C)CC(=O)NC(NC(=S)Nc1sc2c(c1C#N)CCCC2)C(Cl)(Cl)Cl (stereo not drawn),-0.307
22,Cc1cc2oc(=O)cc(CN3CCN(Cc4ccccc4)CC3)c2cc1Cl,0.124
23,CC(=O)Nc1nc(CCC(C)C)cc2c1c(=O)oc1ccccc12,0.573
